Measured values published in PMC7819943, “Rice protein-binding microarrays: a tool to detect cis-acting elements near promoter regions in rice”.
This is one part of the list.

biological target: T1, OsWOX13 (Oryza sativa, UniProt Q5QMM3 1-267); assay: protein-binding microarray (RPBM); PBS, 2% BSA, 51.3 ng/ul salmon testes DNA, 50 uM zinc acetate, 200 nM TF, 25 C, 1 h; high values mean tight binding; settings: protein: recombinant; tags: N-terminal polyhistidine and DsRed monomer fusion (pET32a); label: CyDye5-dUTP incorporated in the synthesized complementary strand; 3' TTTTT single-stranded linker to array surface; dsDNA, one strand shown
T1 sequence: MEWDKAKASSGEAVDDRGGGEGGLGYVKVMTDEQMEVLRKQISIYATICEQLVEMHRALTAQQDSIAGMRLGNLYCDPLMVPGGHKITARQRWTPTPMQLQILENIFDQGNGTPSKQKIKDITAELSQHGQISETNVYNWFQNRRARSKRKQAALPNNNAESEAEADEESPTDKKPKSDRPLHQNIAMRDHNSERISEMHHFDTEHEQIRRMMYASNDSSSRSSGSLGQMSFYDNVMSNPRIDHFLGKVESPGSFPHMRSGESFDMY
Procedure, shortened: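 Transcription factors were made in E. coli BL21-CodonPlus as N-terminal fusions to a polyhistidine tag and DsRed, then purified on Ni–NTA. After primer extension with Cy5-dUTP and blocking with 2% BSA, a custom Agilent array was exposed for 1 h at 25 °C to 200 nM protein in PBS, 2% BSA, salmon testes DNA and 50 µM zinc acetate. Washed arrays were scanned on an Axon 4000B, and the binding signal is per-feature fluorescence intensity in arbitrary units.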

Question: With “CTAGAGATTGACGATACGTTGCCTACCACTAAAAGCACAACGGAGTCACCTAGTGCAG” as the sequence, how does the binding signal read?
Answer: 24100 fluorescence intensity (a.u.)

Question: With “GTATAAAATATTAATTATGTTTTATCATCTAACAACAATACGGAGTCACCTAGTGCAG” as the sequence, how does the binding signal read?
Answer: 8450 fluorescence intensity (a.u.)

Question: For “ATGTTTAATCAACCTCTAAATCAATAAGATTAGTCATGTACGGAGTCACCTAGTGCAG”, which binding signal is on record?
Answer: 3760 fluorescence intensity (a.u.)

Question: How did the binding signal turn out when “GGGTTTGCGTTCACGAGAATGATTGAGTAACGGCAGTTGGCGGAGTCACCTAGTGCAG” was run?
Answer: 5210 fluorescence intensity (a.u.)

Question: “TGACACAATTAGCTTTTGATTAATCAATGGTGCTGATTGACGGAGTCACCTAGTGCAG” was tested. Which binding signal did it give?
Answer: 28800 fluorescence intensity (a.u.)

Question: For “GCGATCACATGACGGTAATTAATCAATAACTAATCCAGCTCGGAGTCACCTAGTGCAG”, which binding signal is on record?
Answer: 6280 fluorescence intensity (a.u.)

Question: With “GCGATCCTGAAATTAATTGCTATGATCTATTTTCGGCTGTCGGAGTCACCTAGTGCAG” as the sequence, how does the binding signal read?
Answer: 10300 fluorescence intensity (a.u.)

Question: Which binding signal does the source give for “ATTTAAATGACGGTTTCGTCCTACGTGGTACATTGACCCGCGGAGTCACCTAGTGCAG” here?
Answer: 6700 fluorescence intensity (a.u.)

Question: Which binding signal does the source give for “CCTAATTAATCTATCATTAGCAAAATATTTACTGTAGCACCGGAGTCACCTAGTGCAG” here?
Answer: 44400 fluorescence intensity (a.u.)

Question: How did the binding signal turn out when “TGAGATTGGAGTGTACCTATCACTGCAACCAACTTTGCTACGGAGTCACCTAGTGCAG” was run?
Answer: 9490 fluorescence intensity (a.u.)

Question: Which binding signal does the source give for “ATATATAATTTGTGAATTAGTTTTGGTTCTTTCACAAACACGGAGTCACCTAGTGCAG” here?
Answer: 27600 fluorescence intensity (a.u.)

Question: For “GACTTCCAATTTACTATGTTTATTACAAGCCTATCCACTACGGAGTCACCTAGTGCAG”, which binding signal is on record?
Answer: 5180 fluorescence intensity (a.u.)

Question: “TTTGATTCCAGTCAATAGATTAACTAGTCAACTTTACTAACGGAGTCACCTAGTGCAG” was tested. Which binding signal did it give?
Answer: 16500 fluorescence intensity (a.u.)

Question: How did the binding signal turn out when “TTAATCAAACCTTCAATTTTAACGTGTAACTAAACACAGCCGGAGTCACCTAGTGCAG” was run?
Answer: 3770 fluorescence intensity (a.u.)

Question: With “CGGTGGAGATGGAGATTAATTGAGCTCGAGTGTGAGACTACGGAGTCACCTAGTGCAG” as the sequence, how does the binding signal read?
Answer: 14500 fluorescence intensity (a.u.)

Question: With “GAGGATTTGCTAATCAAATTCATCATGAACATTGGTTGGACGGAGTCACCTAGTGCAG” as the sequence, how does the binding signal read?
Answer: 13000 fluorescence intensity (a.u.)

Question: With “GTACCAATTTAATTTATGTATCAATAAGAACATATCATGTCGGAGTCACCTAGTGCAG” as the sequence, how does the binding signal read?
Answer: 22800 fluorescence intensity (a.u.)

Question: With “TTAACTTAATTTGGAAGTAAATAAAGGCTCCTCCAAAACTCGGAGTCACCTAGTGCAG” as the sequence, how does the binding signal read?
Answer: 6680 fluorescence intensity (a.u.)

Question: For “TTTATGTAATTATCATTTAATTTATTGTGCCTTGATTCATCGGAGTCACCTAGTGCAG”, which binding signal is on record?
Answer: 24400 fluorescence intensity (a.u.)

Question: Which binding signal does the source give for “GCTCCAATTGACTGTTCCTTGATGCTCATACCATCTTTGTCGGAGTCACCTAGTGCAG” here?
Answer: 21000 fluorescence intensity (a.u.)

Question: With “AATAATTTGTCTGCGGAAGCTAGCTAGGACCACGGCCATTCGGAGTCACCTAGTGCAG” as the sequence, how does the binding signal read?
Answer: 8770 fluorescence intensity (a.u.)

Question: Which binding signal does the source give for “GTCATGTGATTTGTAATAATATAAAACAGAGAGAGTACACCGGAGTCACCTAGTGCAG” here?
Answer: 25000 fluorescence intensity (a.u.)

Question: For “GATTTAATTTATTTTGGTAATGATTTGTGGATGATTTTGGCGGAGTCACCTAGTGCAG”, which binding signal is on record?
Answer: 31600 fluorescence intensity (a.u.)

Question: Which binding signal does the source give for “AGCAATTATCTCGTTCATCATCATCACCATGATGGCATTGCGGAGTCACCTAGTGCAG” here?
Answer: 8710 fluorescence intensity (a.u.)

Question: “GTACACTTCTCAAATCAATCATAAATCCAATTTGCACATACGGAGTCACCTAGTGCAG” was tested. Which binding signal did it give?
Answer: 10600 fluorescence intensity (a.u.)

Question: How did the binding signal turn out when “GATAATCACTGTAATTAAAGTCAGTTAATTGGTTTGAATCCGGAGTCACCTAGTGCAG” was run?
Answer: 44100 fluorescence intensity (a.u.)

Question: For “TACATTACAGCTATGTAATTACTGTACTTCATTGGATGGTCGGAGTCACCTAGTGCAG”, which binding signal is on record?
Answer: 3960 fluorescence intensity (a.u.)

Question: Which binding signal does the source give for “TAAAGAAATTGAAACGGTGTGATGGAAAAGTTGAAAGTTTCGGAGTCACCTAGTGCAG” here?
Answer: 6700 fluorescence intensity (a.u.)

Question: “GCAGTGACAGCCGGCGCTAATCATGCCGTCAAGCTGCCCTCGGAGTCACCTAGTGCAG” was tested. Which binding signal did it give?
Answer: 3880 fluorescence intensity (a.u.)

Question: With “AAAGAATTAAATTGCCAAGTTGGGCCCCAAAGCACACGGACGGAGTCACCTAGTGCAG” as the sequence, how does the binding signal read?
Answer: 7900 fluorescence intensity (a.u.)

Question: For “GTTGATTTACTGAATTTGGTGTGACAAGTGAAGCATGAGGCGGAGTCACCTAGTGCAG”, which binding signal is on record?
Answer: 32000 fluorescence intensity (a.u.)

Question: Which binding signal does the source give for “GTAAAATTGGTTCGAAATGTGAGGTGAATATATATATGTCCGGAGTCACCTAGTGCAG” here?
Answer: 5270 fluorescence intensity (a.u.)

Question: For “CATTGACAAACTCGATCAATGACATATTATGTATAGAGCACGGAGTCACCTAGTGCAG”, which binding signal is on record?
Answer: 10500 fluorescence intensity (a.u.)

Question: “AGGGGAAGATAATTAATAGACTTGCCGGAGTTAGCACGGCCGGAGTCACCTAGTGCAG” was tested. Which binding signal did it give?
Answer: 9550 fluorescence intensity (a.u.)

Question: With “ATGATCAATTTGTCAAAATTACGGGATTTTAATTTCGTGGCGGAGTCACCTAGTGCAG” as the sequence, how does the binding signal read?
Answer: 30500 fluorescence intensity (a.u.)

Question: “GTGAAGCCAAACAATTAAATTTAAATTTCTCATCTCGTCACGGAGTCACCTAGTGCAG” was tested. Which binding signal did it give?
Answer: 5130 fluorescence intensity (a.u.)

Question: With “TGGTCTCTTGAGGATAATTGGTAGAATAACCTGACACTGTCGGAGTCACCTAGTGCAG” as the sequence, how does the binding signal read?
Answer: 3330 fluorescence intensity (a.u.)

Question: Which binding signal does the source give for “ATTAATTGGTCCACGCCTTTTCACGTGCCTCTTGCCGCACCGGAGTCACCTAGTGCAG” here?
Answer: 25800 fluorescence intensity (a.u.)

Question: With “TTCTGATTACGCGGCGAAACCGCTCGCGCCATGGCGGTTGCGGAGTCACCTAGTGCAG” as the sequence, how does the binding signal read?
Answer: 5460 fluorescence intensity (a.u.)

Question: For “TACCAGTATATATCAATCAGGTCAATTATGTTGCAACATCCGGAGTCACCTAGTGCAG”, which binding signal is on record?
Answer: 23700 fluorescence intensity (a.u.)

Question: For “CGCCATCAATCACCATCTACACCTCTAGAGAGCTAATTAACGGAGTCACCTAGTGCAG”, which binding signal is on record?
Answer: 19800 fluorescence intensity (a.u.)

Question: Which binding signal does the source give for “GTCATCAATGATTCAGTGTTAACTACTCCATTTCTAGAAACGGAGTCACCTAGTGCAG” here?
Answer: 3880 fluorescence intensity (a.u.)
